This is one part of the list. Further columns of the screen follow, without active or inactive calls.
Assay: compounds boosting herpes simplex virus growth – fold increase, host cell viability (AID 1956); also: tested in PC3 cells
Details: HSV replication augmentation in cells; fold increase: measured here: primary screen fold increase 10 uM, at 10 µM, stronger effect = higher value; viability: measured here: host cell viability series, at 25 µM, stronger effect = lower value

SMILES	fold increase	viability [%]
CCCCN1C(=O)C2Cc3c([nH]c4ccccc34)CN2C1=S (stereo unspecified)	1.66	94.7
O=c1[nH]c2ccccc2nc1/C=C(\O)C(F)F	1.63	99.8
COc1ccc(C2C3=C(CC(C)(C)CC3=O)Nc3cc4c(cc32)OCO4)cc1 (stereo unspecified)	1.28	
CN(C)CCCn1c(N)c(C#N)c2nc3ccccc3nc21	1.37	94.7
COc1ccc(-n2nnnc2SCC(=O)Nc2nnc(C)s2)cc1	1.13	
Cc1cc(/C=C(/C#N)c2nc3ccccc3[nH]2)c(C)n1-c1cc(C(=O)O)cc(C(=O)O)c1	1.55	99.9
COc1cc2c3nnc(-c4ccc(F)cc4)c-3cn(Cc3ccc(C)cc3)c2cc1OC	3.21	97.4
N#Cc1cn(-c2ccccc2)nc1-c1ccccc1	1.39	90.8
CC(C)C(C(=O)O)N1C(=O)/C(=C/C=C/c2ccco2)SC1=S (stereo unspecified)	1.34	
COCCN1C(=O)/C(=C/c2ccc(N3CCCC3)cc2C)SC1=S	4.94	84.4
O=C(c1cn(-c2ccccc2)nc1-c1ccccc1)n1nnc2ccccc21	1.16	
O=C(NNC1=Nc2cccc3cccc1c23)c1ccc(Br)cc1	1.56	
O=C(Nc1ccc(Cl)cc1)N1CCCC(Cn2cccc2)C1 (stereo unspecified)	1.32	
CCOc1ccc2oc(-c3ccccc3)c(C(=O)N(C)C)c2c1	1.32	90.3
CCc1sc(/C=C(/C#N)C(N)=S)cc1[N+](=O)[O-]	1.54	99
CC(=O)Nc1ccc2cc3ccc(NC(C)=O)cc3nc2c1	9.14	
Cc1cc(C(=O)CN2C(=O)NC3(CCCc4ccccc43)C2=O)c(C)n1Cc1ccccc1 (stereo unspecified)	1.18	
CC(=O)Nc1cccc(C(=O)/C=C/c2ccc(N(C)C)cc2)c1	1.37	89.2
CCOC(=O)/C(C#N)=C/c1ccc(OCC(=O)Nc2ccccc2)c(OC)c1	1.14	
CCN(CC)Cc1ccc(OC)c(Cl)c1	1.33	92.3
O=C(CCN1C(=O)c2ccccc2C1=O)Nc1ccccn1	1.33	101
Nc1nccnc1C(=O)OCC(=O)Nc1cccc(S(=O)(=O)N2CCCCC2)c1	1.43	96.9
N#C/C(=C\c1ccc([N+](=O)[O-])o1)C(=O)Nc1ccc(F)cc1	1.56	
Cc1ccc(N2C(=O)[C@@H]3C(C(=O)CCN4C(=O)c5ccccc5C4=O)=NN[C@@H]3C2=O)cc1	1.33	95.4

SMILES	fold increase	viability [%]
CC(=O)c1sc2nc(-c3cccs3)cc(C(F)(F)F)c2c1N	1.24	94.3
CCOC(=O)N1CCN(C(=O)c2cc3c(=O)n(C)c4ccccc4c3n2C)CC1	1.4	96.8
O=C(CSc1nnc(-c2ccccc2)c(-c2ccccc2)n1)Nc1ncc(Cl)cc1Cl	1.42	86.6
CCCN1C(=O)/C(=C/c2c(N3CCNC(=O)C3CC(=O)OCC)nc3c(C)cccn3c2=O)SC1=S (stereo unspecified)	8.77	69.8
CC(C)(C)CC(C)(C)NC(=S)Nc1ccc2nc(-c3ccccn3)c(-c3ccccn3)nc2c1	1.34	72.1
COc1cc(-c2cc(=O)c3ccccc3o2)ccc1O	1.34	83.6
CCOc1cc(/C=C/c2cc(C(F)(F)F)[nH]c(=O)n2)ccc1O	1.56	83.2
CC(C)N1CC=C2C(C#N)=C(N)C(C#N)(C#N)C(c3ccccc3)C2C1 (stereo unspecified)	1.41	
COC(=O)c1c(C)[nH]c(O)c1C=Nc1ccc(C(C)C)cc1	1.38	93.8
Cc1cc(O)cc(O)c1C=NCc1ccco1	2.37	99.9
CC1=C(C#N)c2nc(N)c(C#N)c(C)c2/C1=C\c1ccc(OCC(=O)O)c(Cl)c1	1.34	95.4
COc1ccccc1N1C(=O)C2C(C(=O)c3ccccc3)=NN(c3ccc(C)cc3)C2C1=O (stereo unspecified)	1.93	103
Cn1c(=O)c(C(=O)CN2CCc3ccccc32)c(N)n(Cc2ccccc2)c1=O	2.2	99.9
CCN(CC)C(=O)c1cc2c(=O)n3cccc(C)c3nc2n1C	1.35	92.6
O=[N+]([O-])c1ccc(-c2c[nH]c(=S)[nH]2)cc1	1.4	92.2
COc1ccc(Cl)cc1-c1nc(SCC(=O)N(C)C)n[nH]1	1.33	102
Cc1ccc(-c2c(C(=O)Nc3ccccc3C)c(C)[nH]c(=S)c2C#N)o1	1.7	93
C=CCN(C1CCCCC1)S(=O)(=O)c1ccc2c(c1)oc(=O)n2C	1.48	90.2
Cc1ccccc1CN1CCN(CC(=O)NCc2ccccc2)C1=O	1.44	99.4
COc1ccc2c(n1)Sc1nc3ccccc3nc1N2	3.62	95.9
CC(=O)N/N=C/c1cc(C(C)(C)C)cc(/C=N/NC(C)=O)c1O	4.57	
Cc1cccc(OCc2nnc(SCC(=O)Nc3ccc(C)c(C)c3)o2)c1	1.38	97.8
O=C(O)c1cccc(-c2ccc(/C=N/Nc3ccc([N+](=O)[O-])cc3)o2)c1	1.92	105
O=C(C(=O)N1CC=C(c2ccccc2)CC1)c1c[nH]c2ccccc12	2.25	88.2

SMILES	fold increase	viability [%]
CN1/C(=C\C(=S)NC(=O)c2ccc([N+](=O)[O-])cc2)C(C)(C)c2ccccc21	1.72	
COc1ccc(/C=N/NC(=O)C(=O)N2CCN(c3ccccc3OC)CC2)cc1	1.42	86.3
CCN1C/C(=C/c2sccc2C)c2nc3ccccc3c(C(=O)O)c2C1	1.37	98.1
CCOC(=O)CC1C(=O)NCCN1c1nc2ccc(C)cn2c(=O)c1/C=C1\SC(=S)N(C(C)CC)C1=O (stereo unspecified)	4.22	
CCOc1cccc(/C=C2/NC(=O)N(CC(=O)Nc3cccc(C)c3)C2=O)c1O	1.8	102
CCN(CC)c1nc(C)c(C(=S)Nc2cc([N+](=O)[O-])ccc2Cl)s1	1.55	97.8
CCOc1ccc(NC(=O)C(C)Sc2nnc(C)n2C)cc1 (stereo unspecified)	1.57	96
O=C(c1ccccc1)c1c2c(cc3sc4ccccc4[n+]13)-c1cccc3cccc-2c13	1.52	35.5
CCOC(=O)c1c(C)[nH]c(C(=O)/C(C#N)=C/c2ccc(OC(F)F)c(OC)c2)c1C	1.68	89.7
Cc1ccccc1Nc1cccc2nonc12	1.49	
O=[n+]1c2c(n([O-])c3cc(F)c(N4CCCC4)cc31)CCCC2	2.06	104
COc1cc(/C=C2\SC(=S)N(C(Cc3ccccc3)C(=O)O)C2=O)ccc1O (stereo unspecified)	4.27	92.7
CCOC(=O)C1=C(C)n2c(s/c(=C/c3cccc([N+](=O)[O-])c3)c2=O)=NC1c1ccc(O)c(OC)c1 (stereo unspecified)	1.96	48.6
COc1ccc(N=C2NC(=O)S/C2=C\c2ccc(N(C)C)cc2)cc1	2.48	91.6
CCCCc1ccc(-c2csc(/C(C#N)=C\c3ccco3)n2)cc1	1.45	
CCN(CCO)c1nc(SC)nc2c1sc1nc(-c3ccco3)c3c(c12)CCC3	1.35	97.2
O=C(O)/C(=C\c1ccc(Br)cc1)c1ccc(S(=O)(=O)N2CCCCC2)s1	1.4	92.2
COc1ccccc1-n1cc(C(=O)c2cc(Cl)ccc2O)cc(C#N)c1=O	1.46	96.4
CS(=O)(=O)Nc1ccc(C2=NN(S(C)(=O)=O)C(c3ccc4c(c3)OCO4)C2)cc1 (stereo unspecified)	1.83	96.1
Cc1sc2ncnc(N3CCCCC3)c2c1C	1.37	83
N#Cc1c(C(F)(F)F)cc(-c2cccs2)nc1SCc1ccc(Cl)nc1	1.42	87.9
CCOc1cc(/C=C2/SC(=S)N(C)C2=O)ccc1Oc1ccc([N+](=O)[O-])cc1[N+](=O)[O-]	1.98	80.6
Cc1c(C(=O)C(=O)N2CC=C(c3ccccc3)CC2)c2ccccc2n1C	1.78	
CC(=Nc1ccccc1C)C1=C(O)CSC1=O	1.43	94.6

SMILES	fold increase	viability [%]
CC(=O)c1cccc(N=Nc2c(-c3ccccc3)[nH]n(-c3ccccc3)c2=O)c1	1.56	82.1
CCOC(=O)c1c(NC(=O)CN2CCCc3ccccc32)sc(C)c1CC	1.89	
CC(C)Cc1cc(C(=O)N2CCC(N3CCC(C(=O)NC4CC4)CC3)CC2)n[nH]1	1.47	106
Cc1ccc(S(=O)(=O)N2CCCCC2C(=O)N2CCN(c3ccccc3F)CC2)cc1 (stereo unspecified)	1.38	93.7
Cc1ccc(N=C2NC(=O)C(CC(=O)O)S2)cc1 (stereo unspecified)	1.32	
COc1cccc(C(=O)/C=C/Nc2cccc(O)c2)c1	1.35	95
Cc1sc2nc(COC(=O)c3cccc(S(=O)(=O)N(C)c4ccccc4)c3)[nH]c(=O)c2c1C	1.34	98.2
O=C1c2ccccc2-c2onc3ccc(Oc4ccccc4)c1c23	5.82	50.8
COc1ccc(C2C=C(c3ccc(Br)cc3)Nc3nc(N4C(=O)CCC4=O)nn32)cc1 (stereo unspecified)	3.14	94.2
O=c1c(Cl)c2oc3ccccc3nc-2c2ccccc12	1.67	99.2
Cc1c(C2Nc3ccccc3NC3=C2C(=O)CC(C)(C)C3)cnn1C (stereo unspecified)	1.22	98.5
CN(CC(=O)Nc1ccccc1Oc1ccccc1)Cc1ccccc1F	1.35	
COc1ccc(-c2cc(-c3ccco3)[nH]c(=O)c2C#N)cc1	1.69	97.8
CCN1/C(=C/c2ccc3cccc(C)c3[n+]2CC)Sc2ccccc21	5.74	20.3
OCCCc1nc2n(n1)C(c1cccs1)C=C(c1ccc(Br)cc1)N2 (stereo unspecified)	5.13	79.1
O=C(O)c1cc(-c2ccco2)nc2cc3ccccc3cc12	1.35	98.6
CC1CCc2nn(CC(=O)NCCN3CCCCC3C)cc2C1 (stereo unspecified)	1.36	100
CC(C)CN=Cc1c(O)c([N+](=O)[O-])cc2oc3c(c12)CCCC3	3.13	102
COc1ccc(N=C2NC(=O)/C(=C/c3ccc(O)c(OC)c3)S2)cc1	1.85	77.5
CCOc1cc(C=C(C#N)C#N)ccc1Oc1ccc([N+](=O)[O-])cn1	1.33	87.3
Cn1c(=O)oc2cc(S(=O)(=O)NCc3ccc(C(=O)O)cc3)ccc21	1.72	104
